From PubChem BioAssay (NCATS)
The inconclusive results got no clear call from the source; some entries with a clear call stand among them for comparison. Potencies of inconclusive entries are left out as doubtful fits. Active and inactive are the calls of the source. Calls come from the whole dose curve; as a rule, active = well fitted curve in the direction sought with a large enough effect; inconclusive = small, poorly fitted or top-dose-only effect, or another doubt; inactive = no such curve, though single readings can be large; an effect the other way counts as inactive or inconclusive.

Tests used:
[1] = qHTS for Inhibitors of Plasmodium falciparum (DD2) proliferation (AID 504314);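 for activity, negative = inhibition: parasite DNA measured by SYBR Green fluorescence after red cell lysis; plate controls were DMSO vehicle for no effect and artemisinin wells for full effect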; details: P. falciparum Dd2 in erythrocytes, SYBR Green growth, 72 h; activity, negative = inhibition: at 6.11 µM (top of the series)
Outline: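 Infected RBCs, 0.3% parasitemia, 2.5% Hct; compound 72 h, 37C/5% CO2; lyse + SYBR Green I, RT overnight, dark; read ex485/em535; normalize to DMSO and artemisinin 0.29 uM.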

[2] = qHTS for Inhibitors of Plasmodium falciparum (GB4) proliferation (AID 504315); note: nearly all actives have a fitted effect of over 50% in size;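 for activity change, negative = inhibition: 0% = DMSO vehicle and -100% = 0.29 µM artemisinin control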; details: P. falciparum GB4 in erythrocytes, SYBR Green DNA, 72 h; activity change, negative = inhibition: at 6.7 µM (top of the series)
Outline: (§1)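 Erythrocytes infected with P. falciparum line (0.3% parasitemia, 2.5% hematocrit final) incubated with compounds 72 h at 37 °C, 5% CO2; SYBR Green lysis buffer added, fluorescence read next day. Normalized to 0.29 uM artemisinin and DMSO.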

[3] = qHTS for Inhibitors of Plasmodium falciparum (7G8) proliferation (AID 504316); note: nearly all actives have a fitted effect of over 65% in size;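 for activity change, negative = inhibition: 0% = DMSO vehicle and -100% = 0.29 µM artemisinin full kill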; details: P. falciparum 7G8 in erythrocytes, SYBR Green DNA, 72 h; activity change, negative = inhibition: at 6.7 µM (top of the series)
Outline: as §1
Potency is the fitted concentration of half-maximal effect; tags give direction and shape of the fitted curve.

Structure (SMILES) | Potency [1] | Potency [2] | Potency [3] | activity, negative = inhibition [1]
CCN1C(=NCc2cccc(C(F)(F)F)c2)NC(c2cccc(C(F)(F)F)c2)C(C(=O)OC)=C1C (configuration not stated) | inconclusive [inhibitor, full curve] | active: 0.0953 µM | inconclusive [inhibitor, single point] | 
CCN1C(=NCCc2c[nH]c3ccccc23)NC(c2cccc(F)c2)C(C(=O)OC)=C1C (configuration not stated) | inconclusive [inhibitor, single point] | inconclusive [inhibitor, single point] | inconclusive [inhibitor, partial curve] | 
CC(=O)OC[C@H]1O[C@H](c2cc(C)cc(C)c2)C=C[C@H]1OC(C)=O | inactive | inactive |  | 
C[C@H]1Cc2c(-c3ccccc3)nc3c(c2CO1)CN(C(=O)c1cccnc1)CC3 | inactive | inactive | inactive | 
COc1ccc(-c2nc3c(c4c2C[C@H](c2ccccc2)OC4)CN(C(=O)Cc2cccs2)CC3)c(C)c1 |  | inconclusive [inhibitor, partial curve] | inconclusive [inhibitor, partial curve] | inactive: -1.42% [at 1.12 µM]
C[C@@H]1CC2=CCCC2[C@]2(O1)C(=O)N(CC1CC1)c1cccc(Br)c12 (some centres not stated) | inconclusive [inhibitor, full curve, poor fit] | inconclusive [inhibitor, partial curve, poor fit] | inactive | 
CCN1C(=NCc2ccco2)N[C@@H](CCc2ccccc2)[C@H](C(=O)OC)[C@H]1C | inactive | inactive | inactive | 
c1ccc(C2NCCc3c2[nH]c2ccccc32)cc1 (configuration not stated) | inconclusive [inhibitor, single point] | inconclusive [inhibitor, partial curve] |  | 
COCCN1C(=O)N[C@@H](c2cccc(C(F)(F)F)c2)[C@H](C(C)=O)[C@H]1C | inactive | inactive |  | 
COC(=O)[C@@H]1[C@@H](C)N(Cc2ccccc2)C(=O)N[C@H]1c1cccc(C(F)(F)F)c1 |  | inconclusive [activator, partial curve, poor fit] |  | inactive: 0.994% [at 1.12 µM]
COC(=O)C1=C(C(=O)OC)[C@@H]2N(C)c3ccc(OC)cc3[C@@]23C[C@@H](C(=O)OC)N(S(=O)(=O)c2ccc(OC)cc2)C3=N1 |  | inactive | inconclusive [inhibitor, single point] | inactive: -0.78% [at 1.12 µM]
C#CCCOC(=O)N1C2=NC(C(=O)OC)=C(C(=O)OC)[C@@H]3Nc4ccccc4[C@]23C[C@H]1C(=O)OC | inactive | inconclusive [activator, single point] |  | 
COC(=O)N[C@@H](C=Cc1ccccc1)[C@@H](C)[N+](=O)[O-] | inactive | inconclusive [activator, full curve, poor fit] | inactive | 
C[C@H]1Cc2c(-c3ccccc3)nc3c(c2CO1)CN(C(=O)Nc1cccc(C#N)c1)CC3 | inconclusive [inhibitor, partial curve, poor fit] | inconclusive [inhibitor, single point] |  | 
CCN1C(=NCc2ccc(OC)cc2)NC(c2ccccc2)C(C(=O)OC)=C1C (configuration not stated) | inconclusive [inhibitor, partial curve] | inconclusive [inhibitor, partial curve, poor fit] | inactive | 
C[C@H]1C=CCC(=O)N[C@@H](c2ccc3ccccc3c2)[C@@H](C)C=CCC(=O)N[C@@H]1c1ccc2ccccc2c1 | inconclusive [inhibitor, single point] | inactive | inconclusive [inhibitor, partial curve, poor fit] | 
CC(C)(C)Nc1oc(-c2ccccc2)nc1-c1ccccc1F | inactive | inconclusive [inhibitor, partial curve, poor fit] |  | 
N#Cc1ccc2c(c1)C[C@]1(c3ccsc3)Oc3c(c(=O)oc4ccccc34)[C@H]2O1 | inactive | inactive | inconclusive [inhibitor, single point] | 
